Values marked as one replicate rest on one cluster of the flow cell; about a third of the high ones do not repeat.
System: ATP
Assay: switch fluorescence ratio, 500 uM ATP over buffer (Cy3 cluster intensity, sum of 5 cycles each) (fold (ratio)); higher = stronger signal-on switching upon ATP binding; sequences stand for … in TCGTCGGCAGCGTCAGATGTGTATAAGAGACAGTTTTTTTTTTTTTTTTTTTTTTTTT…TC
Settings: aptamer strand: ATP DNA aptamer (quencher-CACCTGGGGGAGTATTGCGGAGGAAGG + anchor), 100 nM annealed; ATP concentration: 500 uM; one replicate
Summary of the method: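 After annealing to 100 nM quencher-labelled ATP aptamer, Cy3-labelled switching-strand clusters on a modified Illumina MiSeq flow-cell were imaged in selection buffer. A second image followed after 15 min with 500 uM ATP at 22 °C, and five such buffer/ATP cycles were done, each separated by NaOH stripping and re-annealing. The fluorescence ratio, averaged per switch-domain sequence, is summed target-cycle over summed buffer-cycle Cy3 intensity per cluster, with clusters outside 100-1000 RFU excluded.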
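Further: ATP exposure 15 min at 22 °C before imaging.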

Sequence	switch fluorescence ratio
GAGGCGTGTC	1.04
ATCATTGCTT	1.05
CCAACGTCGT	1.07
TTAGCCTTGC	1.03
CGTGAAGCTG	1.02
ACTGGGGCAC	0.998
GCGTTATGCA	1.03
TGTGAGCGAC	1.05
GTAGACAGGT	0.998
TTTACGGTAG	1.03
TGGCGGGGAA	1.04
CGGTACGATT	1.04
AGCCCGAGTC	1.05
TATCATCCGC	2.33
TTGTAGCCGC	1.08
TCCTACCAGT	1.67
GGGGGTCTTC	0.953
GAGCGAGGGT	0.991
TCCGCAGGCG	1.86
CGTTGACTCA	0.98
TTATAAGCTG	1.01
AGGATTACTC	1.21
CAGAGGGCCA	0.969
CAAGTCCCGG	0.997
ATGTACTGCA	1.04

Sequence	switch fluorescence ratio
GTATTGTGTT	1.02
CCTTATAATA	1.01
CGTTGTGGGT	0.961
TTGCTTTGAC	1.03
GTTGGGCGTA	1.05
CCAGTGACTA	1.02
ATGACGGTA	1.02
ATCATCCTAC	1.17
CTGGTCCGCG	1.2
GACAGCCACG	1.06
GTGACGGAGG	0.982
GAGCTGTACT	1.68
AATAGTAACT	1.02
CCGTTTGATA	1
TAGTCCTCCG	3.25
GGAAATGCTC	1.11
ACCATGGCGT	0.997
ATATGATTGG	1.04
CGAACGTCCC	1.73
GGTATGCTAG	1.03
TACGATAGCG	1.04
GTGGAAGCAT	1.01
GGGAACGCTA	1.13
TTCTTAGACT	1.01
ATGCCCAGAC	1.09

Sequence	switch fluorescence ratio
CGTCGCATGG	1.78
GGGCAGGTCT	0.968
CTACTGGAGG	1.02
GCCGTTTATT	1.01
CGGGTACTGG	1.02
GTGCATGGCA	1.04
ACAGGGTTTG	1.03
CGTTCATTTT	1.03
GGATGCAACG	1.04
AATCAGTTAG	1.01
GGTCATGGAT	1.03
CACATAGCC	1.04
TACTGGGTA	1
GGAGGTTCAA	0.976
TAGAGCCGTT	0.958
GTTGACTTCG	1.66
CCCTCATTCT	1.03
TATTCAATG	0.984
GATCCTCTGA	1.07
GACGTATGGA	1.04
TATTGGCTA	0.99
GATTGCCATC	1.02
GATGGATAAA	1
ATCTATGAGC	1.02
TTAAGTCAAT	1

Sequence	switch fluorescence ratio
ATTGGGGCAT	1.02
CACAGCGGGT	1.08
GATCCATCCC	1.01
GGTGGTTGAG	0.993
CGCGTTAATT	0.98
GCTGCATTG	1.02
ATACGGGCAG	1.01
CCGGGATAAC	2.26
TCGCGGAAGG	1.02
GATAACGCCC	1.23
AAGGTCAAGA	0.987
GACGTTGGCT	0.995
CGATTCGGCA	0.991
ATAATTTCAT	1.01
AGAACGTTTG	0.955
CGGTAATGCA	0.992
GATAACGGTA	1
GCTACCAGG	1.47
TCCTGTAACT	1.05
CGTCCCGTTT	0.998
CATCAAGTCA	0.97
CGGCCACAGG	1.3
CCATAGCCCT	1.33
TTAAACTGTG	1.24
CGGCTGCAAA	2.38

Sequence	switch fluorescence ratio
ATATTCCGCT	1.14
TGAGCTGTCG	0.97
CGTGGAGATA	1
ATCCGCCGGG	1.1
ATTATGCGTT	0.953
GTTGTAAAC	1.01
TATGGAATAC	3.77
GGGCATTCTA	0.986
ATCAAACTAA	1.01
TGCTTAACGG	0.948
GCGGGCAAGG	1.03
TTTCTTTCCC	1.09
TCATGCTCGG	1.03
CGGCATTCCG	0.965
CCTCATCGGT	1.22
CGGGGTTCCT	1.01
GTGGATGTCA	1.01
AGGAGAACAA	1.03
AGAAAAATAG	0.955
AGTAGTCGGC	0.938
GTGAGTCAC	0.95
CTACGGTCTG	1
ACGCCATCCC	1.28
CACCGCATTA	1.63
TCATCGGGCC	1.04

Sequence	switch fluorescence ratio
GTTACATCTC	1.06
TCCGAAAGCA	2.61
GATCCAGCGA	1.02
ACACCGACTT	1.2
TACGAAGAG	1.07
GCCGTTTCTG	0.945
GCCCGTCACA	1.05
CCTGAAGATG	1.06
TGGTGATGAT	0.99
GAATCAGTCG	0.95
TTTACGGG	1.01
AGTCCCTCG	1
GTTACAGGTT	1.03
CCAAATGATC	1.03
AGCGGCCGTA	1.03
TCGAGCCTAC	1.68
CTTTTACTCT	0.958
CAGGAGATAA	1.01
AAACCTTAGA	1.04
AACCAATTAG	1
AATGCTCATC	0.988
CTTATTAGG	0.977
TAACGTTTTA	0.995
CGAAGCGTCG	1.04
AGCATGCAAT	1.07

Sequence	switch fluorescence ratio
CCATTATTGA	0.959
AGTGCGAGGG	0.996
TCTTAGTATA	1.01
TTCAAGCTGT	1.03
AATTTAGACA	1.02
CAGTTTCTAG	0.986
CTGAACACA	0.99
GCTGGCGCTC	1.01
TGGCTTGGGA	1.01
ATGCCTACGG	1.02
CGAAGTACGG	1.24
CACCCAGCAC	1.8
GGGCCAAGAT	1.08
CAAGCTTGGT	0.951
TGGCTCGGTG	1.03
AACTCCATTC	1.07
AGGACCTAAC	1.03
TTAGGTTTTC	0.995
ACTGGATTCA	1.02
GGCTGTCGCT	1
TTCGATAGC	0.999
CCACGGTTCG	1
CGATTACGTC	1.04
GACCATGCTC	1.04
CAGTAGGCCC	0.954

Sequence	switch fluorescence ratio
TAGGAGCAT	1.24
CTTAGAGGTG	1.05
GACCCCAAGC	1.13
TCCGAGGGTG	1.69
ATTTGATTGG	1.02
TTGTGGTGCT	0.995
GGCATGTGTG	1.01
GTTATATGCA	1.01
GAATTCAATG	1.02
GCTGGGGCAT	0.95
CGCTAGACGG	1.22
AGACAGTGGA	1.03
CCGAATTTG	1.05
TAAAAGACTT	1.01
ATGAAGGGCG	1.06
CTCGTCTATC	1.17
TGTTTAGTGG	1
ATACTCTTGT	0.979
TGACCGCTAG	1.04
TCTGTTAGTC	0.998
CGTAAAATTC	0.993
AAGCGATCAG	1.04
GAGCTTCCTG	1.38
CTGATGGTCT	1.03
CGTAGATCCT	1.04
